These are yes or no findings as the source states them, for the method shown. Binding seen in cells or lysates may run through a third protein. Some entries that bind do so weakly or less than the wild type. For some of these results: Where a sequence is shown, tags or fusion partners need not be part of it. One block for each molecule: values may come before it.
What was measured:
Flag-USP53 [1] = biological target: T1, Flag-USP53 (UniProt Q70EK8); experiment: co-IP; Co-IP of RIPK1 or RIPK1-K377R with USP53 (Fig. S5G); cells and precipitating antibody not given
T1 sequence: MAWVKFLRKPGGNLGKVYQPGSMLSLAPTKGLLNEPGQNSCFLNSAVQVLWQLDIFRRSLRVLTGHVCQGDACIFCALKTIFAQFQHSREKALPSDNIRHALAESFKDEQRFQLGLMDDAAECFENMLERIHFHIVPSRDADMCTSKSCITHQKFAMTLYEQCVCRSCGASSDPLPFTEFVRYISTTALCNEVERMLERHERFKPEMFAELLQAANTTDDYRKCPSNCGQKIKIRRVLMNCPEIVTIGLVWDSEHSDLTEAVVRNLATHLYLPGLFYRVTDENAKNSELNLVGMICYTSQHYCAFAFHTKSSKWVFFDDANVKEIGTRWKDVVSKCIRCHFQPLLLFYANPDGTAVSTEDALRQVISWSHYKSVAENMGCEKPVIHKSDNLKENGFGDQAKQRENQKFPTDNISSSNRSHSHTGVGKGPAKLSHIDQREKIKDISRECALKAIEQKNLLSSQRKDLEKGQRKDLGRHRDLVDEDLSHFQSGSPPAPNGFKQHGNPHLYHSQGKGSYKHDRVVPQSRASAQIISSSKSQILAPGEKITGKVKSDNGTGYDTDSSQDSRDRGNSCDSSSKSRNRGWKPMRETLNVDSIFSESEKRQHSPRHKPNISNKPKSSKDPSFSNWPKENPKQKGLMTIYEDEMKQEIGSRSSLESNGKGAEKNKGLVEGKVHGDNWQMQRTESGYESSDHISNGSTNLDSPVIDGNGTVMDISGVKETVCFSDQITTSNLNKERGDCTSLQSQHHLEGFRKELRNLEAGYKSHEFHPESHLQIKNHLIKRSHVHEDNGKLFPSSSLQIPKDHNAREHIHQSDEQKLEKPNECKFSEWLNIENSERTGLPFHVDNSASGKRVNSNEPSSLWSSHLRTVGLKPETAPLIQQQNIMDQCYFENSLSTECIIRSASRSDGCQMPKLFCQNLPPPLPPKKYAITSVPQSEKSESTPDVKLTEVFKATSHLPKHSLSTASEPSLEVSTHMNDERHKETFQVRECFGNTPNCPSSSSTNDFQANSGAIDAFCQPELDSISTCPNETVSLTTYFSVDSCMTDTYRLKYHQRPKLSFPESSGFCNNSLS

Chains of the proteins cited; added tags and fusions are not shown. Lines headed by an entry give the natural chain unless they say otherwise; changes in a name come on top.
UniProt Q9Y572: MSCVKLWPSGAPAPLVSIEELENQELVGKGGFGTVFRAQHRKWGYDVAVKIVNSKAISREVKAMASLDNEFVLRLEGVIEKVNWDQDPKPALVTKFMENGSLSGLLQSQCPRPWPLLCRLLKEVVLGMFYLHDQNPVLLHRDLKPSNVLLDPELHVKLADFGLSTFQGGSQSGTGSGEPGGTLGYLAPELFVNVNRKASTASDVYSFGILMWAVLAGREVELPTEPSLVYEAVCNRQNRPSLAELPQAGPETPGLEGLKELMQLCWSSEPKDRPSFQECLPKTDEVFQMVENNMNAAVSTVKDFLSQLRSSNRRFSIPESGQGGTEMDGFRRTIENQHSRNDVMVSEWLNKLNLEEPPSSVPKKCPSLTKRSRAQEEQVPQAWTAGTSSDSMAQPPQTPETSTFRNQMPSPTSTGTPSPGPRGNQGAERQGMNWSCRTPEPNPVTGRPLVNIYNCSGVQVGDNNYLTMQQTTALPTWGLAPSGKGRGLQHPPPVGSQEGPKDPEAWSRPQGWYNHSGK
UniProt Q13546: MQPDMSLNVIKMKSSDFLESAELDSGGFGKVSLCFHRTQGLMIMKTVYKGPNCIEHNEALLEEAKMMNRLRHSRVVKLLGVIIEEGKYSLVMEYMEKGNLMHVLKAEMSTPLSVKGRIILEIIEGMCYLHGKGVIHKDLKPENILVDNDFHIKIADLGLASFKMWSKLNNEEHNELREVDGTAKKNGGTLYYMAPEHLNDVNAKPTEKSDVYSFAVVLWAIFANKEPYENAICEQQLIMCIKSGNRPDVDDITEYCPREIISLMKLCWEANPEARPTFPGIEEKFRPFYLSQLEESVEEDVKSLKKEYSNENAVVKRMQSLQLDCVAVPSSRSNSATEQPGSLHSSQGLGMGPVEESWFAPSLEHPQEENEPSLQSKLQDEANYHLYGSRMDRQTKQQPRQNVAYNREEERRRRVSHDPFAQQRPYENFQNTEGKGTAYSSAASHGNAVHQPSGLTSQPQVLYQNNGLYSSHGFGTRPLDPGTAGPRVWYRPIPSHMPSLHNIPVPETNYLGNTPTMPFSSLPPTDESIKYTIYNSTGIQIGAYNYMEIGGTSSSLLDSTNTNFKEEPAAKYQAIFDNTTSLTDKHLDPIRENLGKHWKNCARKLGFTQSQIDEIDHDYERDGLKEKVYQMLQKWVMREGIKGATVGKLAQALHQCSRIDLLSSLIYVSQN

Flag-USP53 [2] = biological target: T1, Flag-USP53; experiment: co-IP; HEK-293T cells cotransfected with Flag-USP53 and HA-RIPK1 or its truncation mutants; anti-Flag IP, Western blotting
[3] = biological target: receptor-interacting protein kinase 3 (RIPK3), endogenous in AC16 cells (human (endogenous in AC16)) (UniProt Q9Y572); experiment: co-IP; endogenous proteins in AC16 cells with or without EtOH (200 mM, 24 h); NP-40 lysis buffer, Protein A/G magnetic beads, overnight at 4 °C
[4] = biological target: receptor-interacting serine/threonine-protein kinase 1 (RIPK1), endogenous in AC16 cells (human (endogenous in AC16)) (UniProt Q13546); experiment: as above
HA-RIPK1 (human) = HA-RIPK1 (human) (UniProt Q13546); experiment: co-IP; HEK-293T cells cotransfected with HA-RIPK1 and Flag-USP53 or its truncation mutants; anti-HA IP, Western blotting

Molecule: HA-RIPK1-KD (kinase domain) (from UniProt Q13546 17-289) (domain or fragment)
binding (Flag-USP53 [2]): no binding

Molecule: HA-RIPK1 (from UniProt Q13546 1-671)
binding (Flag-USP53 [1]): binds
binding (Flag-USP53 [2]): binds

B2: Flag-USP53 (protein, UniProt Q70EK8 1-1073)
chain: T1 sequence
binding (HA-RIPK1 (human)): binds

The next lines start with the values.

binding (Flag-USP53 [1]): binds
Molecule: HA-RIPK1-K377R (from UniProt Q13546 1-671)

binding [3]: no binding
binding [4]: binds
B1: ubiquitin-specific protease 53 (USP53), endogenous in AC16 cells (protein, UniProt Q70EK8 1-1073)
chain: T1 sequence

From article PMC12352791
